We go through 89 sequences from the supplement of paper PMC11417369.

This is one part of the list.

The subject of the assay is PfAP2-HC AP2 domain (GST-tagged). The assay is described as follows: gcPBM binding intensity (ln(normalized median fluorescence intensity)); higher = stronger DNA binding. An outline of the steps: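 GST-tagged P. falciparum DNA-binding domains, expressed in E. coli (about 25 μg on average), were applied for 1 h to an Agilent 4 × 180k array of primer-extended double-stranded 36-bp intergenic genomic probes plus negative controls. The binding buffer was 1× PBS with 1% milk, 0.2 mg/ml BSA, 0.5% salmon testes DNA and 0.03% Triton X-100. Bound protein was detected with Alexa488 anti-GST antibody and scanned at 488 nm. Binding intensity is the highest Masliner-normalised natural-log median intensity across replicate spots of either probe orientation.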
With “TTGTTCTAATATATTGCACACGTAAAAATATAGGTA [CACACA_site8195]”, the “gcPBM binding intensity (ln)” value turned out to be 9.68.

Turning to “AAGTATGCATTATATACACACATACATTTATATATT [CACACA_site4242]”, the “gcPBM binding intensity (ln)” value amounted to 9.91. Turning to “TTGGTTATACAACACATGCACACGTAAATAAATATT [CACACA_site3841]”, the “gcPBM binding intensity (ln)” value turned out to be 9.83. Next, “ATTATGTTAAAAAGGCGTACATGTTATAAGGTCCTA [XGTACX_site344]”: 9.56. Next, “TATATATAAAGAGAAACATGCAAAATGTGAATATTC [TGCATGCA_site377]”: 9.73. In the case of “TTTTGTTCTAATATGGGAACATAAATATTAAATATA [CACACA_negctrl_site1787]”, the “gcPBM binding intensity (ln)” value amounted to 9.24. To “ATATAAATATTAATTACACACAAAAAAAAAAAAAAA [CACACA_site6671]” belongs 9.69. Next, “AATGGAAAAGGTAGTTGTACAACATGTTAAAATGGT [XGTACX_site1312]”: 10.1; “TTGAAGAATAAATATGCACACATGCATATATTTTTA [CACACA_site5840]”: 9.64. On to “ATATAAATAAACAACTTTGTTGGCCTTCCAAAATAT [CACACA_negctrl_site1181]”, for which the “gcPBM binding intensity (ln)” value was 9.62. “CTCAAAAAATTTCATAGTACTTTAAAATACTATAAT [XGTACX_site1939]”: the “gcPBM binding intensity (ln)” value was 9.41. As to “AATAAAAAAAAACGCACACACAAATATATTCCATTC [CACACA_site1224]”, the “gcPBM binding intensity (ln)” value is 10.4. To “ATATATATTTAAAACGCATGCCTTGTTATATATATA [TGCATGCA_site624]” belongs 9.74; to “CATATATATTTTATATGTACATATATATTTTATATA [XGTACX_site8665]”, 9.7. Next, “ATTACAAAAATATATAAACACACAAATATAATATAT [CACACA_site8962]”: 9.97; “ATATATATTATAATAACACACATATATTATATTATA [CACACA_site406]”: 9.62; TATATATATAAATGAATGCACTTTAGAAAAAAGTAC: 9.58. Regarding “TAATAATATAAATATGCACACAAATTATTACCCAAA [CACACA_site8805]”, the “gcPBM binding intensity (ln)” value was 9.79. To “AATAAAATACAAAAATGTACAAATATAATATACATA [XGTACX_site279]” belongs 9.78; to “ATAAAATAAAACAACACACACGAATGTATAAATATA [CACACA_site4643]”, 10.7. Regarding “TAGATATATAGAATTACACACTTTTCTATAATATGA [CACACA_site6475]”, the “gcPBM binding intensity (ln)” value worked out at 9.56. To “TAATATAAAATGATAAATGAATGTGATCATTTTATA [CACACA_negctrl_site1034]” belongs 9.69. On to “ACATACTCAAATAGCACACACATAAATAAAAATGTA [CACACA_site3864]”, for which the “gcPBM binding intensity (ln)” value came out at 10.4. With “AGATATTTTTCTTAAGTACACACTAAATAGAAACTA [CACACA_site44]”, the “gcPBM binding intensity (ln)” value came to 9.49. Turning to “TTTTTTTTTTTCAGTTGTACATTGGGAAAATATATA [XGTACX_site4416]”, the “gcPBM binding intensity (ln)” value was 9.44. In the case of “AGTCTGAATAAAATTACACACATATACCTATAAATA [CACACA_site6929]”, the “gcPBM binding intensity (ln)” value was found to be 9.79. On to “TTTAAAAAAATGAAATAAAAAAAAAATAAAATAAAA [XGTACX_negctrl_site316]”, for which the “gcPBM binding intensity (ln)” value is 9.52.

On to “ATATATATAATTTGTACACACAAATATGCATATATA [CACACA_site3432]”, for which the “gcPBM binding intensity (ln)” value came out at 9.78. Next, “AAATAATTTATATATTGTACAAATATTAAATGCGAA [XGTACX_site3390]”: 9.67. To “GGGTTGATATATATTTGTACATATTATTATTTATTA [XGTACX_site7116]” belongs 9.9. To “TTTATTTTAACTTGTTCACACATTTGAATAAATAAA [CACACA_site5064]” belongs 9.52; to “ATATATATATATTATGTGCGCATATACCATTTTAAT [GTGCAC_site9575]”, 9.87; to “GAAAAAAAAAAAAAAAGAAAATTCATATTTTTAATA [XGTACX_negctrl_site513]”, 9.2. As to “ACATTTATATATAATTGTACCCTACATTCTCTTTTT [XGTACX_site189]”, the “gcPBM binding intensity (ln)” value was found to be 9.86. To “AAAAATATATAAACACGTACACACACATATATGTAT [XGTACX_site7436]” belongs 10.4; to “TACCAAAAAAAAAAAAAAAATTAAATAAATATGAAA [TGCATGCA_negctrl_site383]”, 9.27. Next, “TATGTTAAAAAAAAAAAAAAGAAAAAAATAAAAGGA [CACACA_negctrl_site119]”: 9.52; “AAACAAATAGACACTTGTACGTAAGTAAATAATTAA [XGTACX_site6157]”: 9.87. For “TATTTTACTTTAAAAATGGAAAAAAAAAAGAATATT [CACACA_negctrl_site1360]”, the “gcPBM binding intensity (ln)” value turned out to be 9.17.

Regarding “TTTTTTTTTTTTACATGTACATATGAATTATAATAT [XGTACX_site5016]”, the “gcPBM binding intensity (ln)” value was determined as 9.75. To “TTAATAAAACTAACACGTACACATATATAATATTAT [XGTACX_site3260]” belongs 9.72; to “ATTGTCATCATTATATGTACGTAAAAGAATATAGAT [XGTACX_site3117]”, 9.7. Turning to “GAAAGAAGCATAAATGTACACACATATTTATATATT [CACACA_site8368]”, the “gcPBM binding intensity (ln)” value was found to be 9.91. Next, “TTTCTATATAGATTTGCACACATAAAAATGCTTATA [CACACA_site2390]”: 9.79; “CTTTATACATGACATAGTACCCATTTTAGATTTGAA [XGTACX_site5240]”: 9.46; “AAGGGAAAAATATGGTTGCACTAAAAATATGTAATT [GTGCAC_site9605]”: 9.5.

Take “ACATATTTTTACTTTTGTACATATTTTTTAATTTTC [XGTACX_site640]”: the “gcPBM binding intensity (ln)” value came to 9.91.

As for “TTTATATATTTTTATCTTGATAATAATGTTTTAGAA [TGCATGCA_negctrl_site300]”, the “gcPBM binding intensity (ln)” value was 9.38.

“GTATATTACATAAAATGTACATAAAAAGCGGAAAAG [XGTACX_site6905]”: the “gcPBM binding intensity (ln)” value is 9.97. As for “TATATTAATTATAAGACACACATATAGTAATAGAAA [CACACA_site2056]”, the “gcPBM binding intensity (ln)” value is 9.87. To “AATAAGAAAACAAATGCACACCATTTATATAGATTA [CACACA_site8261]” belongs 9.77. Turning to “ATGGGTTAGGCGTGTACACAATTGTATGGTTTAATA [CACACA_site4812]”, the “gcPBM binding intensity (ln)” value was determined as 10.

With “CGTGGAAAAAAAAACACACACAAAAAAAAAAAAAAA [CACACA_site3997]”, the “gcPBM binding intensity (ln)” value was 9.57. Next, “TTCAAATATATGTTTTCACACACAAAAGAAATGAAA [CACACA_site8671]”: 9.87; “TTTTCTCTAAAAAGGTGTACAACTAATAATGCACTG [XGTACX_site6074]”: 9.56. Next, “ATATATATATAATATTGTACGAAAAAAAATAAAAAA [XGTACX_site974]”: 9.77. For “AAATATAATTAATGATGTACACTTATAGATATTGAT [XGTACX_site8435]”, the “gcPBM binding intensity (ln)” value was 9.68.

As for “TATTCTCGTTCTCATACACACAAAATATACATACAC [CACACA_site7278]”, the “gcPBM binding intensity (ln)” value turned out to be 10.

“GGGTTAATATTTACTACACACACTTAAAATATGTAT [CACACA_site47]”: the “gcPBM binding intensity (ln)” value came out at 9.92. Next, “ATGTATTTTTAAAAATATAAATTATGTAACTTGTGA [XGTACX_negctrl_site620]”: 9.68; “TACTGATATAATATAACCGTTTATGTGTATTTTTTA [XGTACX_negctrl_site81]”: 9.75; “TATAATAAAATTTTTACACACTTTAAAAAAAAAAAA [CACACA_site524]”: 9.51. On to “TAATAAATAAAAATAGAACACACATATGTTTTTTTT [CACACA_site9185]”, for which the “gcPBM binding intensity (ln)” value worked out at 9.72. For “CAGTAGTATATACTATGTACATATTTATATTATATT [XGTACX_site4964]”, the “gcPBM binding intensity (ln)” value was determined as 9.77.

Take “AATATAAATAAACACACACACATATATATATATATT [CACACA_site2906]”: the “gcPBM binding intensity (ln)” value came to 11. Next, “AAAAAAAAAAAAAAATGTACATATATATAAATAAAA [XGTACX_site5574]”: 9.66; “ATATTTATATATTGCACACAAAAAAAAAAAAAAATC [CACACA_site1629]”: 9.88. Next, “TATATATATATGTAATGTACATAAATTTTATACCTT [XGTACX_site6991]”: 9.63; “AACAACCAAACGCACACACACAAAAAAAAAAATATA [CACACA_site6326]”: 10.8; “TTATATGCATAAAAAGGTACACATATATAAATAAAT [XGTACX_site6894]”: 9.78. To “ACATTTAAAATTTATGCATGTGGTGTTTTGTATATA [TGCATGCA_site534]” belongs 10.2.

As for “TTTGTGTAGGTGTGTAGTACATATAACTTATAACAT [XGTACX_site7885]”, the “gcPBM binding intensity (ln)” value was determined as 9.97.

Turning to “TAATAAAATGTACACGCATGCAATAGAATATAAAGT [TGCATGCA_site905]”, the “gcPBM binding intensity (ln)” value was 10.1. Next, “TATATTCATAATATTACACACGTTCATTTATTTTAA [CACACA_site2031]”: 9.95; “GAGTGAAATATGCAAACACACACGAGAAAAATGTAT [CACACA_site3196]”: 10.2. “TATGGTTTTAAAAAATGTACGCAAGTGCGTTAATTT [XGTACX_site3945]”: the “gcPBM binding intensity (ln)” value was found to be 9.56. Consider “TTATATATTTATATATGTACACATTTTACCATTTTT [XGTACX_site2142]”, for which the “gcPBM binding intensity (ln)” value stood at 9.79. Next, “AAATTTATAAAGAACACACACATATAAATATAAATA [CACACA_site6174]”: 10.2; “GTCCCTATAAGGGGAACACACATAAATGAATATATA [CACACA_site1024]”: 9.58; TTTTTTTGTTAAAAGGTGCTAATATATATAAGTGCT: 9.35. Next, “TTATAATTGTAAGGTAGTACATATAAATCAAATAAT [XGTACX_site7190]”: 9.54; “TATACAGATGGACACACACACATATATATATATATA [CACACA_site5272]”: 11; “ATACAAACAATTATTTGTACATAAAATTTTTTTTTT [XGTACX_site90]”: 9.52. To “ATGAATCTTTTAAAAAGTACATGTGAAAAAAATAAA [XGTACX_site49]” belongs 9.63; to ATTTATTTCTTGTTAGTGCACTTTCTTTGGTAAAAT, 9.63. Take “TTAAAATGTTGTAACGTGCACATTTTGTGGAAATCA [GTGCAC_site9559]”: the “gcPBM binding intensity (ln)” value was 9.52. To “ATATTTAGGAAAAATAGTACACATTTAAATAATAAT [XGTACX_site7989]” belongs 9.7; to “TAGGTGCCTTTTTTCACACACATGTCAACTAAATAT [CACACA_site2656]”, 10.1; to “AAATATATATATATATATATAAATATATACATATAT [TGCATGCA_negctrl_site517]”, 9.57.
